Reference: a compilation of properties of binary mixtures (doi:10.1007/s10953-011-9788-x)
Some of these densities may be calculated back from excess volumes.

Test: xn = mol fraction of the nth substance listed
Conditions: 101 kPa

CCCC[n+]1ccn(C)c1.N[C@@H](CCC(=O)O)C(=O)[O-] + CO
mass density [kg/m3]
Conditions	x2 = 0.1087	x2 = 0.2002	x2 = 0.2995	x2 = 0.4003	x2 = 0.4998	x2 = 0.6002	x2 = 0.7	x2 = 0.8001	x2 = 0.9
298.15 K	1188	–	–	1159.9	1143.9	1122.2	–	1043.8	–
303.15 K	1186.5	1179.7	1170.3	1157.8	1141.5	–	1088.5	1040.4	956.6
308.15 K	1184.7	1177.7	1168	1155.2	1138.7	–	1084.9	–	951.7
313.15 K	1182.9	–	1165.8	1152.8	1136	1113.5	–	1032.8	948
